The other results are listed elsewhere or left out. At the low end of the ranking the order means little.

The target in this test is SIX1 homeodomain (reference allele) (UniProt Q15475). The test is described as follows: universal protein binding microarray. As to conditions: Universal all-10-mer PBM (8x60K, AMADID 030236), 300 nM GST-tagged protein, Alexa Fluor 488 anti-GST; buffer, salt, pH and temperature not stated; high values mean tight binding; most listed sequences are background and not binding sites; double strand, one strand shown.
For the sequence AGCTGGTG, the binding signal came to 0.0343 E-score. Turning to CCTGTGGA, the binding signal came to 0.0586 E-score. In the case of CTGTGTGC, the binding signal is -0.142 E-score.

As to ACGTACGA, the binding signal was -0.231 E-score.

As for AACTCAAC, the binding signal was -0.0659 E-score. As for CGGAAGTC, the figure is -0.0905 E-score; as for CCCCTCTC, 0.161 E-score.

As for TGACGCAA, the binding signal was -0.159 E-score. Take GGAGGAAA: the binding signal is -0.134 E-score. On to GCACAAAA, for which the binding signal is -0.232 E-score. As to GACCTAAC, the binding signal was -0.0985 E-score. As for AAACAACG, the figure is -0.086 E-score; as for GCTGGTTA, -0.279 E-score; as for CATGTGCG, -0.0911 E-score. Turning to AATCTATA, the binding signal came out at 0.167 E-score. With ACGTAATA, the binding signal came out at 0.16 E-score. Turning to CCGGCTAC, the binding signal was -0.0626 E-score. For GAAACCCA, the binding signal turned out to be 0.096 E-score. Turning to ATGTAAGA, the binding signal was determined as 0.0514 E-score. On to GATAAGCA, for which the binding signal was 0.172 E-score. For CCCTGGCC, the binding signal came to 0.0892 E-score.

With AGCCGCCC, the binding signal was determined as 0.0227 E-score. As for CGGTAGAG, the binding signal is 0.0841 E-score. ACTTAAAG: the binding signal is -0.16 E-score.

ATCCGCGC: the binding signal amounted to 0.292 E-score.

As to TCGCATAA, the binding signal was 0.0663 E-score.

On to AGGCTAGG, for which the binding signal is -0.106 E-score. The same measure for AGAGACGG: 0.102 E-score; for GAAGTTAC: -0.108 E-score.

Take GTCGAGAC: the binding signal came to 0.106 E-score. As for ACTAGAAA, the binding signal was -0.298 E-score. As for CTTCTAGC, the binding signal was -0.226 E-score. AGCCACAA: the binding signal was -0.177 E-score.

In the case of AAAGAACA, the binding signal is -0.174 E-score. As to CAGTCTAA, the binding signal was -0.0571 E-score. For the sequence CGGCTAAG, the binding signal is -0.0262 E-score. The same measure for ATGACTGA: -0.0432 E-score. CTACCCCC: the binding signal came out at 0.0291 E-score.

As for GATTTCCC, the binding signal is -0.107 E-score. Regarding CAGTGAGC, the binding signal came to 0.0565 E-score. ACTGAGAC: the binding signal came out at 0.0937 E-score.

For CTGGCCTC, the binding signal is -0.0549 E-score. Turning to AACATTCT, the binding signal was -0.251 E-score. CGCTTTGC: the binding signal was -0.207 E-score. For TACCTCAA, the binding signal is -0.0245 E-score. Take CGCAAGAG: the binding signal was -0.093 E-score. As for CGCAAAAG, the binding signal was -0.231 E-score. With AGCCGGAA, the binding signal was -0.0791 E-score.

Consider CATTCCCA, for which the binding signal was -0.139 E-score.

Turning to GATTGAAC, the binding signal is -0.00835 E-score. On to ATATCCCA, for which the binding signal worked out at 0.418 E-score. In the case of AACGAGTG, the binding signal was -0.0175 E-score. Turning to CTACCATC, the binding signal is -0.109 E-score. Consider CAACCGCG, for which the binding signal worked out at 9.5e-05 E-score. In the case of AAAAACCC, the binding signal is -0.167 E-score.

As to GTAGAAGA, the binding signal came to 0.115 E-score. In the case of ACGTGGAT, the binding signal is 0.284 E-score. Regarding AGATACTA, the binding signal came to 0.316 E-score. The same measure for ATACTTCC: 0.241 E-score; for AACTCACT: -0.169 E-score.

Regarding CAAGCGGG, the binding signal amounted to 0.0208 E-score. Consider CGCGAGGA, for which the binding signal was -0.0718 E-score. For GAGGCTTA, the binding signal was -0.16 E-score. As for TAAACGTA, the figure is 0.0346 E-score; as for GTTTCCCA, -0.122 E-score. For ACAAAAAC, the binding signal is -0.277 E-score. Take GCAGTGAC: the binding signal is -0.257 E-score. Consider CGCCTGTA, for which the binding signal was -0.124 E-score.

With ATCTTATC, the binding signal was 0.228 E-score. In the case of ATGCAAGC, the binding signal is -0.0563 E-score. In the case of ATGACTCC, the binding signal is -0.0145 E-score. Take GACGTAAC: the binding signal was -0.181 E-score. As to ACCTAGGT, the binding signal was 0.0332 E-score. Turning to ATTCGTAA, the binding signal is -0.199 E-score.

In the case of GCGACAGA, the binding signal was found to be 0.0181 E-score. The same measure for ACGAGCGA: 0.0308 E-score; for GCACGCCC: -0.187 E-score. Regarding CGGCAAAG, the binding signal was -0.107 E-score. In the case of ACGAGCAG, the binding signal is -0.0488 E-score. Turning to AGGTTCCA, the binding signal was -0.178 E-score. Turning to ATGTGCAG, the binding signal was -0.104 E-score.

On to ACTGTGCC, for which the binding signal was -0.255 E-score. Take ACTGATCA: the binding signal was 0.181 E-score.

With AACGCCGT, the binding signal was -0.172 E-score. The same measure for AATACGAC: 0.18 E-score; for ACGATAGC: 0.217 E-score. As for ATATCGTA, the figure is 0.402 E-score. Regarding AATAAGAC, the binding signal was -0.0461 E-score. With GGAGAATA, the binding signal is 0.235 E-score.

Regarding AGACGCAT, the binding signal is 0.136 E-score. For the sequence ACACATCT, the binding signal amounted to 0.118 E-score. As for ACTGTGAT, the figure is 0.211 E-score; as for ATCAGCAA, 0.0994 E-score; as for GTAGTGAA, -0.079 E-score.

As for ATGTGCGG, the binding signal is 0.0119 E-score. As for CCATAACC, the binding signal was -0.0643 E-score.

As to TATTTTCA, the binding signal is -0.067 E-score. The same measure for GCTAATCA: -0.0282 E-score; for CACCCGAA: 0.193 E-score; for CCTTAGGA: 0.114 E-score. As for CATCATGC, the binding signal is -0.027 E-score. Turning to GACGATGA, the binding signal was 0.00309 E-score. For ACACATAA, the binding signal was -0.137 E-score. As for AAACTTTC, the figure is -0.265 E-score; as for CACAAGCG, -0.142 E-score; as for AGCCGTGA, 0.0895 E-score. With AGTTCGTC, the binding signal is -0.159 E-score. As for AAGTTTCT, the binding signal is -0.249 E-score.

Regarding AATCGAGG, the binding signal is -0.0855 E-score. The same measure for CGTGAGCC: 0.0957 E-score. As for GCGGGGAC, the figure is -0.034 E-score; as for ACAGTGTG, -0.178 E-score; as for AGAATGAG, 0.00948 E-score. On to GCAATTAC, for which the binding signal was -0.178 E-score. For the sequence CATTCCTA, the binding signal turned out to be 0.0158 E-score.

For the sequence CGCTCCGC, the binding signal is -0.278 E-score. The same measure for AAAGCACC: -0.273 E-score.

With ACTTCATA, the binding signal amounted to 0.00632 E-score. As for CCACCAGC, the binding signal is -0.0398 E-score. Regarding AGAGCTTG, the binding signal is -0.152 E-score. As for GGTCCCTA, the binding signal was -0.0369 E-score. In the case of CTCTTTAA, the binding signal is -0.239 E-score. On to AAGCACCA, for which the binding signal was -0.173 E-score. On to GCTAGCAC, for which the binding signal turned out to be 0.0172 E-score. For CGGCTGGC, the binding signal is -0.176 E-score. The same measure for CAACTATC: 0.168 E-score; for AGGGGTGC: -0.108 E-score. As for GCTATATA, the binding signal was 0.253 E-score. The same measure for CATTTTGC: -0.205 E-score; for AGCGGTGC: -0.181 E-score. In the case of AATTTTCA, the binding signal is -0.0275 E-score.

Regarding CGTAGCGC, the binding signal is -0.251 E-score.

With CACATATC, the binding signal was determined as 0.404 E-score. Regarding CAAACCGA, the binding signal stood at 0.0141 E-score.

On to TAATGGGA, for which the binding signal is -0.227 E-score. Turning to CGCCGCCC, the binding signal was -0.105 E-score. CACGGGAG: the binding signal is -0.203 E-score. On to CCAACGAC, for which the binding signal was -0.266 E-score. For GTCGTCAC, the binding signal was -0.211 E-score. For the sequence GGCTGGGA, the binding signal was 0.0237 E-score. As for ACCCGTCT, the figure is 0.0871 E-score. As for GAAATTTC, the figure is -0.399 E-score; as for ATTCTCAC, 0.106 E-score. ATGCGCGA: the binding signal was -0.0746 E-score. As for TGACACCA, the binding signal came to 0.466 E-score. For AAGAAGGC, the binding signal was -0.137 E-score. CTCTGACC: the binding signal is -0.253 E-score. As for AGTAATTC, the figure is -0.146 E-score; as for CCGGCAAC, 0.00139 E-score; as for CAACTTCA, -0.164 E-score. Regarding ACCCATAT, the binding signal was 0.379 E-score. Consider GACGAATA, for which the binding signal is 0.0237 E-score. Regarding CAGAGGAC, the binding signal was -0.0905 E-score.

With CCGGCTCG, the binding signal is 0.15 E-score. In the case of CCGCCTTC, the binding signal is -0.0903 E-score. Turning to CGGAGGCC, the binding signal is -0.125 E-score. The same measure for AAGTATGT: -0.148 E-score. Take TAATCGAA: the binding signal is -0.187 E-score. For the sequence GCGCTGAC, the binding signal is -0.287 E-score.

Take CCTCTATC: the binding signal was 0.0339 E-score. As for AACTCTTA, the figure is -0.133 E-score.

Regarding CATGCCGA, the binding signal was -0.0331 E-score. Consider ACGTGGTC, for which the binding signal is -0.168 E-score. As for CACCTTAG, the binding signal was -0.0539 E-score. Regarding ACACAGTA, the binding signal worked out at 0.0199 E-score.

Consider GGACGCAC, for which the binding signal is -0.351 E-score. As for ATAACACC, the binding signal came to 0.301 E-score. For the sequence AGCGCCTG, the binding signal is -0.178 E-score. As for GACATCTA, the binding signal turned out to be 0.0667 E-score.

With CTTGAGTA, the binding signal came out at 0.103 E-score. As for CTTGCCTA, the binding signal was -0.181 E-score. The same measure for GCCCACCA: 0.0599 E-score.

These data come from publication PMC10668032.
